Laboratory results taken from PubChem BioAssay AID1865 (National Center for Advancing Translational Sciences (NCATS), 2009).
In all, about 280,000 compounds went through this assay and about 540 (0.19%) were called active. The inconclusive results got no clear call from the source; some entries with a clear call stand among them for comparison. The call rests on the fitted dose curve; in most records, active means well fitted activation curve with a large enough effect; inconclusive means small, poorly fitted or top-dose-only effect; inactive means flat fitted curve, though single readings scatter. A potency beside an inconclusive call is a rough fit, not a confirmed value.
Potency means the concentration at half of the fitted maximal effect; tags describe the fitted curve by direction and shape.

Assay: Quantitative High-Throughput Screen for Regulators of Epigenetic Control; further: nearly all actives have a fitted effect of over 60% in size
Conditions: murine LDR cells, GFP reporter derepression, 30 h; series mostly up to 53.9 µM
Procedure, shortened: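 Readout is the number of GFP-expressing murine LDR cells, counted by cytometry following washing. Cells were treated with compound for 30 h at 37 C; the stably integrated CMV-GFP locus is normally silent.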
In the case of `Clc1ccc(-c2nc3nc4ccccc4nc3n2Cc2ccco2)cc1`, the Potency is reported as “inactive”. With `Cc1ccc(N/C(C(Cl)=C(Cl)Cl)=C(/Cl)[N+](=O)[O-])c(C)c1` the Potency was inconclusive: 35.5 µM [activator, single point]. For `C=CCC(C)(O)c1cccs1` (stereo unspecified), the Potency was “inactive”. With `CS(=O)(=O)c1ccc(C(=O)OCC(=O)NC(=O)C2CCCCC2)cc1[N+](=O)[O-]` the Potency was inconclusive: 25.1 µM [activator, single point]. For `COc1ccc(N=Cc2sc(O)c3ccccc23)cc1`, the Potency was active: 10 µM. In the case of `Cn1cc(C(=O)N/N=C/C(Br)=C/c2ccccc2)ccc1=O`, the Potency is reported as inconclusive: 31.6 µM [activator, single point]. With `CCOc1ccc2nc(NC(=O)c3nc(SCc4ccccc4C)ncc3Cl)sc2c1` the Potency was inconclusive: 35.5 µM [activator, single point]. For `Fc1ccccc1/C=N/Nc1nc(-c2ccccn2)nc2ccccc12`, the Potency was inconclusive: 22.4 µM [activator, single point]. With `Oc1[nH]c2c(Cl)cc(Cl)cc2c1N=NC(=S)NCC1CCCO1` (stereo unspecified) the Potency was inconclusive: 14.1 µM [activator, single point]. For `CCN(CC)S(=O)(=O)c1ccc2c(c1)N(CC(=O)N1CCN(c3cccc(C)c3C)CC1)C(=O)CO2`, the Potency was “inactive”. For `CCOc1ccc(CNC(=O)CSc2nnc(C)c3c(C)n(-c4ccc(Cl)cc4)nc23)cc1`, the Potency was inconclusive: 31.6 µM [activator, single point]. For `CCN(CC)c1ccc(C(=O)N/N=C(\C)c2cccnc2)cc1`, the Potency was inconclusive: 35.5 µM [activator, single point]. In the case of `COc1ccc2nccc(/C=C/c3ccnc4ccc(OC)cc34)c2c1`, the Potency is reported as inconclusive: 35.5 µM [activator, single point]. With `Cc1ccc(NC(=O)c2sc3nc(-c4cccs4)ccc3c2N)cc1F` the Potency was inconclusive: 31.6 µM [activator, single point]. For `COc1ccc(CN(C)CC(=O)Nc2ccccc2C(F)(F)F)cc1`, the Potency was inconclusive: 6.31 µM [activator, single point]. For `Clc1nc(-c2cccnc2)nc2scc(-c3ccccc3)c12`, the Potency was “inactive”. In the case of `O=C(O)/C=C\C(=O)Nc1ccccc1C#Cc1ccc(Br)cc1`, the Potency is reported as “inactive”. For `O=C(c1cc(-c2ccco2)nn1-c1cccc(Cl)c1)N1CCCCC1`, the Potency was inconclusive: 35.5 µM [activator, single point]. In the case of `O=C(Cc1ccccc1)NC(=S)Nc1ccc2oc(-c3ccccc3)nc2c1`, the Potency is reported as “inactive”. For `Cc1cc2nc(SC(C)C(=O)O)[nH]c2cc1C` (stereo unspecified), the Potency was inconclusive: 35.5 µM [activator, single point]. With `COc1cc2oc(=O)cc(-c3ccc(-c4ccc(N(C)C)cc4)cc3)c2c(OC)c1OC` the Potency was inconclusive: 20 µM [activator, partial curve, poor fit]. For `CC(C)CCn1c(=O)c2ccccc2n2c(COC(=O)c3ccc(S(=O)(=O)N(C)C)cc3)nnc12`, the Potency was inconclusive: 35.5 µM [activator, single point]. In the case of `CCCCC1CCC(C(=O)N2CC(=O)Nc3ccc(C)cc3C2c2ccc(F)cc2)CC1` (stereo unspecified), the Potency is reported as inconclusive: 14.1 µM [activator, single point]. In the case of `O=C(Cc1csc(Nc2nc(=S)[nH]c3ccccc23)n1)NCCCN1CCN(c2cccc(Cl)c2)CC1`, the Potency is reported as inconclusive: 31.6 µM [activator, single point]. With `Cc1cccc2cc3c(N)c(C(=O)Nc4ccc(N5CCOCC5)cc4)sc3nc12` the Potency was inconclusive: 15.8 µM [activator, single point]. With `COc1cc(N(C(=O)Cc2cccs2)C(C(=O)NC2CCCCC2)c2ccc(C)cc2)ccc1-n1cnnn1` (stereo unspecified) the Potency was inconclusive: 35.5 µM [activator, single point]. With `O=C1CN(/N=C/c2ccc(-c3ccc([N+](=O)[O-])cc3)o2)C(=O)N1` the Potency was “inactive”. With `COc1ccc(C(=O)Oc2ccc3c(c2)OCO3)cc1OC` the Potency was inconclusive: 35.5 µM [activator, single point]. With `O=C(NCCCCNC(=O)c1ccc(Cl)s1)c1ccc(Cl)s1` the Potency was inconclusive: 25.1 µM [activator, single point]. For `CCN1/C(=C/c2cc[n+](C)cc2)C=Cc2cc(C)ccc21`, the Potency was inconclusive: 22.4 µM [activator, single point]. With `CCS(=O)(=O)N1N=C(c2cccs2)CC1c1cc2cc(C)ccc2nc1Cl` (stereo unspecified) the Potency was inconclusive: 28.2 µM [activator, single point]. With `CCN(CC)C(=O)Cn1cc(SCC(=O)Nc2cccc(F)c2)c2ccccc21` the Potency was inconclusive: 15.8 µM [activator, single point]. In the case of `COc1ccc(NC(=O)c2nc[nH]c2C(=O)N[C@@H](CC(C)C)C(=O)OC(C)(C)C)cc1`, the Potency is reported as inconclusive: 35.5 µM [activator, single point]. With `NC1=NC(c2ccccc2Cl)n2c(nc3ccccc32)N1` (stereo unspecified) the Potency was inconclusive: 6.31 µM [activator, single point]. In the case of `CC(C)NC(=S)NNc1nc2ccccc2s1`, the Potency is reported as inconclusive: 25.1 µM [activator, single point]. For `O=C(Nc1ccc(C(F)(F)F)cc1)c1cc(S(=O)(=O)NC2CCCCC2)ccc1F`, the Potency was inconclusive: 20 µM [activator, single point]. With `O=[N+]([O-])/C=C/c1cc2ccccc2[nH]1` the Potency was inconclusive: 35.5 µM [activator, single point]. In the case of `CCCN1C=CC(=C/C=C(\C#N)C(=O)OCC)C=C1`, the Potency is reported as inconclusive: 11.2 µM [activator, partial curve]. For `COc1ccc(C2C=C(c3ccc(Cl)cc3)Nc3nc(NC(C)=O)nn32)cc1` (stereo unspecified), the Potency was “inactive”. With `COc1cc(OC)nc(-n2ncc(Br)c(Br)c2=O)n1` the Potency was “inactive”. In the case of `S=c1[nH]cnc2scc(-c3ccc(Cl)cc3)c12`, the Potency is reported as inconclusive: 31.6 µM [activator, single point]. With `COc1cc(COc2cc(N)c(Cl)cc2C(=O)CCC2CCN(CCNS(C)(=O)=O)CC2)cc(OC)c1` the Potency was inconclusive: 28.2 µM [activator, single point]. For `Cc1ccccc1NC1=C(Cl)C(=O)OC1OC(=O)c1ccco1` (stereo unspecified), the Potency was inconclusive: 28.2 µM [activator, single point]. For `COC(=O)[C@@]1(Cc2ccc(F)cc2)[C@H]2c3cc(C(=O)N4CCCC4)n(Cc4ccc(C)c(F)c4F)c3C[C@H]2CN1C(=O)c1ccccc1`, the Potency was “inactive”. With `Cc1ccc(CN2COc3c(Cl)cc4c(-c5ccccc5)cc(=O)oc4c3C2)cc1` the Potency was “inactive”. With `Cc1cc(NC(=O)C2CCCN(S(=O)(=O)c3cccc4nsnc34)C2)ccc1Br` (stereo unspecified) the Potency was inconclusive: 35.5 µM [activator, single point]. For `COc1ccc(N2C(=O)C3C(C2=O)C(C(=O)c2ccccc2)N2CCCC32)cc1` (stereo unspecified), the Potency was inconclusive: 31.6 µM [activator, single point]. With `Cn1cccc1C(=O)Nc1nc(-c2ccccn2)cs1` the Potency was inconclusive: 35.5 µM [activator, single point]. With `COc1ccc(-n2nc3c(N4CCCC(C(=O)NCCc5ccccc5C)C4)nnc(C)c3c2C)cc1` (stereo unspecified) the Potency was inconclusive: 10 µM [activator, partial curve]. For `COc1ccc(C(=O)/C=C/Nc2ccc([N+](=O)[O-])cc2)cc1`, the Potency was inconclusive: 5.62 µM [activator, single point]. For `O=C(Nc1ccc([N+](=O)[O-])cc1)C(Cc1ccccc1)N1C(=O)c2cccc3cccc(c23)C1=O` (stereo unspecified), the Potency was “inactive”. For `Nc1ccc(Oc2ccc(F)cc2)nc1`, the Potency was inconclusive: 31.6 µM [activator, single point]. For `O=C(NC1CCCC1)C(c1ccncc1)N(Cc1ccccc1)C(=O)c1ccc(-c2ccccc2)[nH]1` (stereo unspecified), the Potency was inconclusive: 35.5 µM [activator, single point]. In the case of `Cc1ccc(/C(O)=C/c2nc3ccccc3oc2=O)cc1`, the Potency is reported as inconclusive: 31.6 µM [activator, single point]. With `Cc1cc(=O)oc2cc(OCC(=O)OCC(=O)Nc3ccccc3F)ccc12` the Potency was “inactive”. With `CCN1C(=O)/C(=c2\sc3nc(=O)c(Cc4ccccc4)nn3c2=O)c2ccccc21` the Potency was “inactive”. For `OCCNc1c2ccccc2nc2c(F)c(F)c(F)c(F)c12`, the Potency was inconclusive: 35.5 µM [activator, single point]. With `Cc1ccc(-c2csc(NC(=O)Cn3[nH]c(=O)c4ccccc4c3=O)n2)cc1` the Potency was inconclusive: 31.6 µM [activator, single point]. In the case of `CCOc1ccc2nc(NC(=O)Cn3[nH]c(=O)c4ccccc4c3=O)sc2c1`, the Potency is reported as inconclusive: 31.6 µM [activator, single point]. With `O=C(c1cc(-c2cccs2)on1)N1CCN(C(c2ccccc2)c2ccccc2)CC1` the Potency was inconclusive: 20 µM [activator, single point]. For `O=C(Cc1csc(Nc2nc(=S)[nH]c3ccccc23)n1)NCCCN1CCN(c2ccccc2F)CC1`, the Potency was inconclusive: 35.5 µM [activator, single point]. With `S=c1[nH]nc(Cc2ccc(Br)cc2)n1/N=C/c1ccc(Cl)cc1` the Potency was “inactive”. With `Clc1ccc(/C=N/NC2=Nc3cccc4cccc2c34)cc1` the Potency was inconclusive: 31.6 µM [activator, single point]. With `Cc1cc(C)n2nc(C(=O)N/N=C/c3c4ccccc4cc4ccccc34)nc2n1` the Potency was inconclusive: 31.6 µM [activator, single point]. With `S=c1[nH]c(-c2ccccc2)cn1/N=C/c1ccccc1Br` the Potency was inconclusive: 22.4 µM [activator, single point]. In the case of `Cc1ccc2nc(COc3cccc(NC(=O)COc4ccc(F)cc4)c3)cc(=O)n2c1`, the Potency is reported as inconclusive: 22.4 µM [activator, single point].
